{"source": "PubChem BioAssay AID588342", "about": "(National Center for Advancing Translational Sciences (NCATS), 2011)", "note": "The whole screen tested about 360,000 compounds, of which about 25,000 (6.9%) were called active. Inconclusive results, whose numbers are uncertain, are shown with a selection of clear calls. Calls come from the whole dose curve; as a rule, active = well fitted inhibition curve with a large enough effect; inconclusive = small, poorly fitted or top-dose-only effect; inactive = flat fitted curve, though single readings scatter. A potency beside an inconclusive call is a rough fit, not a confirmed value. Potency is the fitted concentration of half-maximal effect; tags give direction and shape of the fitted curve.", "data": [{"molecular_target": "Luciferin 4-monooxygenase (Photinus pyralis) (UniProt P08659)", "sequence (P08659 whole entry, looked up)": "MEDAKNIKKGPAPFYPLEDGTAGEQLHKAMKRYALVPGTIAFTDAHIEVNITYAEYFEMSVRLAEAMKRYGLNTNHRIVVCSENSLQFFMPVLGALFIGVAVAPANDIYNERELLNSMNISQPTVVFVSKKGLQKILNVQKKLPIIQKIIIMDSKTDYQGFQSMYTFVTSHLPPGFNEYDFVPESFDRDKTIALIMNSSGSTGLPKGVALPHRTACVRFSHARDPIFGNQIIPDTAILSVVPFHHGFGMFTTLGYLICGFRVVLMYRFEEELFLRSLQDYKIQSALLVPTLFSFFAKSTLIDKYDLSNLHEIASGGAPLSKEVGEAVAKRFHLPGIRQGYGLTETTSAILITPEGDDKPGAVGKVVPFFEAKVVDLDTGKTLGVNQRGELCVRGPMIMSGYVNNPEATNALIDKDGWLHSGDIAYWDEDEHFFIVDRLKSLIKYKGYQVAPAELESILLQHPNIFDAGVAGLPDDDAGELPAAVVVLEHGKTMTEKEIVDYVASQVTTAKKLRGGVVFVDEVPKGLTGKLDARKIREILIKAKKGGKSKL", "assay": "qHTS profiling assay for firefly luciferase inhibitor/activator using purifed enzyme and Km concentrations of substrates (counterscreen for miR-21 project); note: nearly all actives have a fitted effect of over 55% in size;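 for activity change, negative = inhibition: plate controls were vehicle for no effect and reference inhibitor for full effect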", "conditions": "purified FLuc, luminescence inhibition; series mostly up to 57.5 µM; activity change, negative = inhibition: at the top concentration", "in_short": "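Purified P. pyralis luciferase (10nM final) with 10uM D-luciferin and 10uM ATP (Km levels) in 50mM Tris acetate pH 7.5, 10mM Mg acetate, 0.01% Tween-20, 0.05% BSA; qHTS 6-point titration, ~60 µM downward; luminescence read.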", "values": [{"smiles": "C=CCn1c(O)c(C(C)=NCc2cc(OC)cc(OC)c2)c(=O)[nH]c1=O", "activity change, negative = inhibition": "inactive: 7.55%"}, {"smiles": "COC(=O)c1ccc(-n2c(C)nc3ccccc3c2=O)cc1", "activity change, negative = inhibition": "inactive: 1.73%"}, {"smiles": "CN(C)c1nc(-c2ccccc2)[n+](C)s1", "activity change, negative = inhibition": "inactive: 0.828%"}, {"smiles": "COc1cc(OC)c(OC)cc1CN1CCN(C(=O)COc2ccc3ccccc3c2)CC1", "Potency": "inconclusive: 23.9 µM [inhibitor, single point]"}, {"smiles": "CN1CC=C(/C=C/c2ccc(-c3ccccc3)cc2)CC1", "Potency": "active: 4.26 µM"}, {"smiles": "COc1ccc2c(c1)CCc1c(C(=O)Nc3c(C)nn(Cc4ccccc4C)c3C)noc1-2", "Potency": "inconclusive: 12 µM [inhibitor, partial curve, poor fit]"}, {"smiles": "COc1ccc(C(=O)CCNc2ccc(F)cc2)cc1", "Potency": "inconclusive: 3.38 µM [inhibitor, full curve]"}, {"smiles": "COc1cc(OC)c(OC)cc1/C=C1\\C(=O)NC(=O)N(Cc2ccccc2)C1=O", "Potency": "inconclusive: 21.3 µM [inhibitor, single point]"}, {"smiles": "O=C1C=Cc2ccccc2C1=O", "Potency": "inconclusive: 16.9 µM [inhibitor, partial curve]"}, {"smiles": "C[C@]12CC[C@@H]3c4ccc(O)c(O)c4CC[C@H]3[C@@H]1CC[C@@H]2O", "Potency": "inconclusive: 10.7 µM [inhibitor, partial curve]"}, {"smiles": "Cc1cccc(-n2c(=S)[nH]c3ccccc3c2=O)n1", "activity change, negative = inhibition": "inactive: -1.31%"}, {"smiles": "CCC(=O)Nc1ccc(-c2ccc(N3CCN(C)CC3)nn2)cc1", "Potency": "inconclusive: 37.9 µM [inhibitor, partial curve, poor fit]"}, {"smiles": "COc1ccc(Cl)cc1S(=O)(=O)Nc1cccc(-c2ccc(N3CCCC3)nn2)c1", "Potency": "inconclusive: 13.5 µM [inhibitor, partial curve]"}, {"smiles": "O=C1NC(=O)N(Cc2ccco2)C(=O)/C1=C/C=C/c1ccco1", "Potency": "inconclusive: 30.1 µM [inhibitor, single point]"}, {"smiles": "O=C(CC1CCCCC1)c1c(O)c2ccccc2oc1=O", "Potency": "inconclusive: 26.9 µM [inhibitor, partial curve, poor fit]"}, {"smiles": "CCc1ccc(NC(=O)c2cccn(Cc3cccc([N+](=O)[O-])c3)c2=O)cc1", "Potency": "active: 9.53 µM"}, {"smiles": "CCOC(=O)C1=CC(=C2C(=O)N(CC)C(=S)N(CC)C2=O)c2ccccc2O1", "Potency": "inconclusive: 21.3 µM [inhibitor, partial curve]"}, {"smiles": "N#Cc1ccccc1NC(=O)CN1CC=C(c2ccccc2)CC1", "Potency": "inconclusive: 16.9 µM [inhibitor, partial curve]"}, {"smiles": "COc1ccc(OC)c(-n2c(O)c(/C=C3\\C=Nc4ccccc43)c(=O)[nH]c2=O)c1", "Potency": "inconclusive: 37.9 µM [inhibitor, partial curve, poor fit]"}, {"smiles": "NS(=O)(=O)c1ccc(-c2ccc(C=C3C(=O)NC(=O)NC3=O)o2)cc1", "Potency": "inconclusive: 6.75 µM [inhibitor, partial curve]"}, {"smiles": "COc1ccc(NC(=O)C(=O)NNC(=O)C(C)Oc2ccc(Cl)cc2Cl)cc1", "note": "(stereo not given)", "Potency": "inconclusive: 7.57 µM [inhibitor, partial curve, poor fit]"}, {"smiles": "CCOc1cccc(CC(=O)NCc2ccc3c(c2)CCN3C(=O)c2cccc(C)c2)c1OCC", "Potency": "inconclusive: 23.9 µM [inhibitor, partial curve, poor fit]"}, {"smiles": "Cc1cc(/C=C2\\C(=O)NC(=O)N(c3ccc(F)cc3)C2=O)c(C)n1-c1cccc(C(=O)O)c1", "Potency": "inconclusive: 37.9 µM [inhibitor, partial curve, poor fit]"}, {"smiles": "Cc1cccc(-n2c(/C=C/c3ccccc3O)nc3ccccc3c2=O)c1", "activity change, negative = inhibition": "inactive: -0.424%"}, {"smiles": "O=c1c2ccccc2nc(/C=C/c2ccc(O)cc2)n1-c1ccccc1O", "Potency": "inconclusive: 37.9 µM [inhibitor, partial curve, poor fit]"}, {"smiles": "CC(=O)Nc1cccc2c1Cc1ccccc1-2", "Potency": "inconclusive: 23.9 µM [inhibitor, single point]"}, {"smiles": "CN1CCc2c(C#N)c(Cl)nc(Cl)c2C1", "activity change, negative = inhibition": "inactive: 3.62%"}, {"smiles": "Cc1ccc2oc(-c3ccc(Cl)cc3)c(O)c(=O)c2c1", "Potency": "inconclusive: 3.01 µM [inhibitor, full curve]"}, {"smiles": "Cc1onc(-c2ccccc2)c1C(=O)Nc1ccc(S(=O)(=O)N2CCCC2)cc1", "Potency": "inconclusive: 26.9 µM [inhibitor, partial curve, poor fit]"}, {"smiles": "CCCCn1cnc2cc(NCc3cccc(OC)c3O)ccc21", "Potency": "inconclusive: 23.9 µM [inhibitor, single point]"}, {"smiles": "CCCCCCOc1ccc(CN2CCN(C)CC2)cc1", "Potency": "active: 6.75 µM"}, {"smiles": "Cc1cccn2c(=O)c3cc(C(=O)N4CCC5(CC4)OCCO5)n(C)c3nc12", "activity change, negative = inhibition": "inactive: 0.335%"}, {"smiles": "Cc1nc2cc(-c3ccccc3)nn2c(C)c1CCC(=O)N1CCC2(CC1)OCCO2", "Potency": "inconclusive: 13.5 µM [inhibitor, partial curve]"}, {"smiles": "O=C(c1cccnc1)c1cc2ccccc2[nH]1", "Potency": "inconclusive: 37.9 µM [inhibitor, partial curve, poor fit]"}, {"smiles": "c1ccc2c(c1)-c1cccc3cccc-2c13", "Potency": "inconclusive: 37.9 µM [inhibitor, partial curve, poor fit]"}, {"smiles": "CN1CCCC(C(=O)c2ccc(-c3ccccc3)cc2)C1", "note": "(stereo not given)", "Potency": "inconclusive: 26.9 µM [inhibitor, single point]"}, {"smiles": "Brc1ccccc1OCCCN1CCOCC1", "Potency": "inconclusive: 19 µM [inhibitor, partial curve]"}, {"smiles": "O=C1NC(=O)N(Cc2ccccc2)C(=O)/C1=C\\c1ccco1", "Potency": "inconclusive: 21.3 µM [inhibitor, partial curve]"}, {"smiles": "Cc1nc2ccc(NC(=O)C3COc4ccccc4O3)cc2s1", "note": "(stereo not given)", "Potency": "active: 12 µM"}, {"smiles": "O=C1NC(=O)N(Cc2ccc(F)cc2)C(=O)/C1=C\\c1ccc(N2CCCC2)cc1", "Potency": "inconclusive: 37.9 µM [inhibitor, single point]"}, {"smiles": "CC(=O)c1ccc(-c2ccccc2)cc1", "Potency": "inconclusive: 21.3 µM [inhibitor, single point]"}, {"smiles": "O=C(Oc1ccc2ccccc2c1)c1ccco1", "Potency": "active: 12 µM"}, {"smiles": "CCN(CC)C(=O)Cn1cc(/C=C2\\C(=O)NC(=O)N(c3ccccc3F)C2=O)c2ccccc21", "Potency": "inconclusive: 30.1 µM [inhibitor, single point]"}, {"smiles": "CN(C)C(=O)Oc1ccc(OC(=O)c2ccccc2)cc1", "Potency": "active: 6.75 µM"}, {"smiles": "CC(C)OC(=O)c1cc(C(=O)c2cc(Cl)ccc2O)coc1=N", "Potency": "inconclusive: 9.53 µM [inhibitor, partial curve, poor fit]"}, {"smiles": "O=C1NC(=O)N(CC2CCCO2)C(=O)/C1=C/c1cccs1", "note": "(stereo not given)", "Potency": "inconclusive: 19 µM [inhibitor, partial curve]"}, {"smiles": "Cc1c(OC(=O)N(C)C)ccc2c1O/C(=C\\c1ccco1)C2=O", "Potency": "active: 0.478 µM"}, {"smiles": "COC1C(OC(=O)c2ccc(C)[nH]2)C(O)C(Oc2ccc3c(O)c(NC(=O)c4ccc(O)c(CC=C(C)C)c4)c(=O)oc3c2Cl)OC1(C)C", "note": "(stereo not given)", "Potency": "inconclusive: 26.9 µM [inhibitor, partial curve, poor fit]"}, {"smiles": "O=C(N/N=C/c1c(O)n(Cc2ccc(F)cc2)c(=O)[nH]c1=O)c1ccccc1", "Potency": "inconclusive: 37.9 µM [inhibitor, partial curve, poor fit]"}, {"smiles": "O=C(O)CCn1cc(C=C2C(=O)NC(=S)NC2=O)c(-c2cccc(Br)c2)n1", "Potency": "active: 21.3 µM"}, {"smiles": "CCN(CC)c1ccc(N=Cc2c(O)n(-c3ccccc3C)c(=O)[nH]c2=O)cc1", "Potency": "inconclusive: 23.9 µM [inhibitor, partial curve, poor fit]"}, {"smiles": "O=c1c(O)c(-c2ccc(O)c(O)c2)oc2cc(O)cc(O)c12", "Potency": "inconclusive: 33.8 µM [inhibitor, single point]"}, {"smiles": "COCCNC(=O)Cn1cc(/C=C2\\C(=O)NC(=O)N(c3cccc(C)c3C)C2=O)c2ccccc21", "Potency": "inconclusive: 37.9 µM [inhibitor, single point]"}, {"smiles": "O=C(O)c1ccccc1-c1ccc(C=C2C(=O)N(c3ccccc3)C(=S)N(c3ccccc3)C2=O)o1", "Potency": "inconclusive: 26.9 µM [inhibitor, single point]"}, {"smiles": "Nc1nc(NC(=O)/C=C/c2ccc(F)cc2)nn1-c1ccccc1", "Potency": "inconclusive: 37.9 µM [inhibitor, partial curve, poor fit]"}, {"smiles": "Cc1ccc(/C=C2\\C(=O)NC(=S)N(c3cccc(F)c3)C2=O)o1", "Potency": "active: 16.9 µM"}, {"smiles": "O=C(O)CCC(=O)NNC(=O)COc1ccc2ccccc2c1Br", "Potency": "inconclusive: 21.3 µM [inhibitor, single point]"}, {"smiles": "O=C1NC(=O)N(c2ccccc2)C(=O)/C1=C/c1ccc2c(c1)Cc1ccccc1-2", "Potency": "active: 21.3 µM"}, {"smiles": "CCN1C(=O)NC(=O)/C(=C\\c2ccc(N3CCOCC3)cc2OC)C1=O", "Potency": "inconclusive: 33.8 µM [inhibitor, single point]"}, {"smiles": "CN1C(=O)C(=Cc2ccccc2OCCOc2ccc([N+](=O)[O-])cc2)C(=O)N(C)C1=O", "Potency": "inconclusive: 21.3 µM [inhibitor, single point]"}, {"smiles": "CN(C)C(=O)Oc1ccc2ccccc2c1Cl", "Potency": "inconclusive: 23.9 µM [inhibitor, partial curve, poor fit]"}, {"smiles": "CCOC(=O)c1ccc(-n2c(N)c(C(=O)NCC3CCCO3)sc2=S)cc1", "note": "(stereo not given)", "Potency": "inconclusive: 33.8 µM [inhibitor, partial curve, poor fit]"}, {"smiles": "O=C1CC(c2ccc(Br)cc2)c2c(c3ccccc3oc2=O)O1", "note": "(stereo not given)", "Potency": "inconclusive: 12 µM [inhibitor, partial curve]"}, {"smiles": "Clc1cccc(Cl)c1Cn1nnc(N2CCCC2)n1", "Potency": "inconclusive: 19 µM [inhibitor, partial curve]"}, {"smiles": "CC(=O)n1cc(C=C2C(=O)NC(=O)NC2=O)c2ccccc21", "Potency": "active: 15.1 µM"}]}]}
